The supplement of paper PMC3334620
Whole data set: some 33,000 sequences, median “E-score (-0.5 to 0.5)” near -0.041, cut for the highest 2% near 0.37. Some of the results follow.

What follows are sequences tested against T1, Ecm22 (UniProt Q05958) (assay: PBM E-score (8-mer binding enrichment) (E-score (-0.5 to 0.5)); higher = stronger / more preferred TF binding; most listed sequences are background and not binding sites). Settings: protein concentration: 200 nM; construct: GST-full length.
T1 sequence: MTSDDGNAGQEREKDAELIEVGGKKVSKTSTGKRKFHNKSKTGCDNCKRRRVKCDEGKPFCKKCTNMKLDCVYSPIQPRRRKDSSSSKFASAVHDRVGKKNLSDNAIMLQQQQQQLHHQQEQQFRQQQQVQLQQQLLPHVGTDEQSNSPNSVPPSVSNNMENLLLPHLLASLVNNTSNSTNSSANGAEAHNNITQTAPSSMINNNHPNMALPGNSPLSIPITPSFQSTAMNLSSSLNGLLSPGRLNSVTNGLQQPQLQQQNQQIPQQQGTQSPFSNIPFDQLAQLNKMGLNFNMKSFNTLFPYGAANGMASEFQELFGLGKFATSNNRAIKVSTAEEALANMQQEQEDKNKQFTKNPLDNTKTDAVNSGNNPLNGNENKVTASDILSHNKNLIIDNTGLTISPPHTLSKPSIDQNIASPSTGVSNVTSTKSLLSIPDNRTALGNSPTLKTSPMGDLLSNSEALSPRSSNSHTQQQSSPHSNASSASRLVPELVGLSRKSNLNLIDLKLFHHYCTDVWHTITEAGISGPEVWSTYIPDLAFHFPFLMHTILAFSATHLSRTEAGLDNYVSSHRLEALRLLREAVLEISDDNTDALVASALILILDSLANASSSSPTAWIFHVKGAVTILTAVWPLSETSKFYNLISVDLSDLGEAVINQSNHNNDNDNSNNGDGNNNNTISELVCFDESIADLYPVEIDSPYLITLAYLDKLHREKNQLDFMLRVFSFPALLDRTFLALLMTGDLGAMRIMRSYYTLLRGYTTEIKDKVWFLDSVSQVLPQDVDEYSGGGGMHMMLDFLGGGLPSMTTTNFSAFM
In short: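 Universal all-10-mer Agilent arrays, double-stranded by primer extension on fresh or once-stripped slides, were probed with about 100-200 nM GST-tagged yeast transcription factors made by PURExpress. Fluorescent anti-GST detected bound protein, and masliner normalised the scans. E-scores from the Universal PBM Analysis Suite were given to each ungapped eight-base word pooled with its reverse complement.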

Sequence	PBM E-score
TGGATAAA	-0.058
ACACACCC	0.133
CGTTGTCC	0.0485
CCCGGGAC	-0.168
CTTGTGTC	-0.0755
TCACAAAA	-0.069
GGTTCTAA	-0.0461
CATTACAC	0.149
CGATATGC	0.188
CCTCTTTC	-0.118
GTCCACCA	-0.285
GCGTGAGC	0.0632
CAGTTTGG	-0.162
AGTAGTCC	-0.132
AATTCTTC	0.127
CTCTAGTA	-0.162
ACCACGAT	0.0854
GCTCGTGA	0.171
CTCTAACA	-0.0398
AAGTGGCG	0.0989
CTGAAGGA	-0.271
CATTCTGG	-0.203
AATGAATG	-0.121
CTAAAACA	-0.128
AGACTCAA	-0.127

Sequence	PBM E-score
CTTAGAAC	-0.0274
CATTAGAG	-0.0844
CCTCGGTC	0.298
ACCCACCA	-0.146
CATCCGGA	-0.18
ATGTCGAA	-0.0588
GGGGCGGA	-0.199
TACACTCA	0.0127
AATTAAAA	0.0435
CATACACA	-0.126
ACGTTTAC	0.304
ATTCCCGA	0.033
TGTTTTAA	-0.0835
CGAATGGA	0.103
ACTCGTAG	0.34
AGACCGCG	0.0449
ACAATTAC	0.0827
TCTAAGAA	-0.0349
AACCCCTA	-0.276
GCCAGCGC	-0.232
ATACTTGA	-0.109
AGAGATAG	0.0862
GCCGGGCA	-0.124
ACTTTGGG	-0.263
AAGGTACG	0.434

Sequence	PBM E-score
GTGAATGA	-0.134
CAGACTGC	-0.101
AGAGCCTG	-0.193
GCAATGCA	0.0156
ACTGGTTG	-0.0604
ATCAACGG	0.0633
CAGATACC	-0.282
AGCCGATC	0.0302
CCTATCAG	-0.232
GAAAATGC	-0.00808
AGTCAGAC	-0.0851
CCACCTGG	-0.313
ATTTGTGC	-0.0226
ATGTTTCG	0.116
CGTGGTAA	-0.0242
ATCCACCG	0.0177
CCCTTGAA	-0.0885
TAAGGAGA	-0.106
ACCGCTAT	-0.0538
GACCACAA	-0.201
GTCGCTGA	-0.073
AATGGTAG	0.0904
CCAATTAC	0.0428
GTACTAAC	0.169
CATCAAGG	-0.171

Sequence	PBM E-score
ACATACAG	-0.0999
GAGACTAC	0.00043
AAGACTGA	-0.196
CCGAAAAC	0.128
ACCTACAG	-0.212
CTCCGTGA	-0.236
ATCCCGCA	-0.133
AACCGTCG	0.225
CCTATGCG	0.0825
CATCGTGC	0.164
AAAAGCGA	0.245
GTCCTTGA	-0.132
CTAACTGC	-0.21
CGCAGAGC	-0.0819
ATGCCCCC	-0.179
AACCCCCC	-0.327
GCATCTTA	0.13
ACCCTTTA	-0.0827
CAATATCG	0.0678
ACGGCAAA	0.129
AGCCCCCC	-0.0476
GCTTAGGA	-0.0432
ATTATAAG	-0.0121
GAGGGCAC	-0.206
CCATTACA	0.146

Sequence	PBM E-score
CGGAGCCA	-0.204
CATTTCGA	0.028
CTGGAATC	-0.256
GAGCGGGA	0.0208
TCATTGAA	0.0985
GGGCACAC	-0.239
CACAGGCC	-0.2
CCGGAAGG	-0.19
AAGCCAAA	-0.0424
ACGTTGAG	-0.171
AACTATGC	0.144
CTTTAACC	0.03
ATAAACTG	0.0158
CATAGCCC	-0.286
TAGAATAA	-0.00277
AAATTATA	0.117
CATCTGGC	-0.0688
CTCAGTAA	-0.0628
CTGGCCGC	-0.366
GAATAAGA	0.122
CTTGGTGA	-0.144
AATTAAGC	0.183
CCTGAGTA	-0.185
AAATGCTG	-0.0824
AGCGATGG	0.103

Sequence	PBM E-score
ATCAGACA	-0.218
AACTTGCG	0.164
CTAGTTAC	0.0198
AAGGATTA	-0.224
GTACATTA	0.225
AGGTTGAC	-0.232
CAGGTGAG	-0.231
GGCAATGA	-0.153
GAGTCGCA	0.133
AAAGTTTC	-0.0781
CAAGTACA	-0.0498
CACGCTGG	-0.0967
CTGACTTC	-0.111
GGCCCCAC	-0.233
AGCAACCG	-0.0179
CATCAGGG	-0.235
ACCCTCCA	-0.244
GGTGATTA	-0.0496
AACGGGCT	0.16
CCGATCCA	-0.0928
AATCGGCC	-0.138
AAACCTGT	0.131
ACATATTC	-0.0732
CAGACGGA	-0.108
ACTAGCAT	-0.156

Sequence	PBM E-score
CGCATACC	0.16
AGGCGTAA	-0.113
AAGGCATG	-0.12
ACCTGCAT	-0.193
CTAATAAG	0.00651
AGGCAGTC	-0.106
GGTCCGCA	0.0486
ATCCTCAT	-0.0712
CCAACGTC	0.0163
CCTTCTCC	-0.0973
CTCAATTA	-0.0205
AACGAAGC	0.437
CGACACGA	0.282
GTAAGGAA	-0.0539
CGAGCGAG	0.343
ACCCCGTG	-0.0297
CCGCTGGA	-0.133
CGTAATAC	0.296
ATTATTCG	0.263
GTAGCATA	0.131
TTAAAAAA	-0.0298
CATGTGCC	-0.153
CCGTATCC	0.337
ATCCACGG	0.0268
GTCCCGTA	0.273

Sequence	PBM E-score
CACACTAC	-0.0812
AATTTAAC	0.196
AGTTTGTG	-0.0389
CTCATGAA	0.0381
ATAAACAA	-0.0236
AGGGATAT	-0.212
CTCCTTCA	-0.106
CAGGGGCA	-0.0769
CCCATGGC	-0.24
GTCAAACA	0.0372
AATTTGCA	-0.215
GCGTAACA	0.00254
CATGGTGG	-0.241
CGTATTCC	0.324
GCAGACCC	-0.226
AATCTTAC	0.166
AGTCCATA	-0.276
CGGCAGCC	-0.176
ACTCGGCT	0.112
GATCCGAC	0.172
CACGAGCC	0.143
AAGTTTGA	-0.2
AGCTTGCA	-0.176
AGTCTTAC	0.0552
ACGTCCGA	0.0712

Sequence	PBM E-score
AAGATGTC	-0.115
AATCGTGT	0.148
AAGCACAT	-0.0748
CTTTCCAA	-0.1
AGACGTCA	-0.0631
AACTCGGA	0.0857
ACAATTTA	-0.145
AACGCACG	0.256
GAATCTGA	-0.0472
TCACACAA	-0.0846
CTCCAGGC	-0.212
CTTGCGGC	-0.0719
GGCAGCAA	-0.13
AATCCCGG	-0.105
GGCCGGCC	-0.148
ACACCCTC	-0.0269
ATGCGACA	0.256
GCGAACGA	0.397
CTTCTGCA	-0.113
